# Results from the supplement of paper PMC3334620.
# In all, about 33,000 sequences were measured (“E-score (-0.5 to 0.5)”: median about -0.032, highest 2% from about 0.36 on). This is one part of the list.
# Molecular target: T1, Sko1 (UniProt Q02100)
# T1 sequence: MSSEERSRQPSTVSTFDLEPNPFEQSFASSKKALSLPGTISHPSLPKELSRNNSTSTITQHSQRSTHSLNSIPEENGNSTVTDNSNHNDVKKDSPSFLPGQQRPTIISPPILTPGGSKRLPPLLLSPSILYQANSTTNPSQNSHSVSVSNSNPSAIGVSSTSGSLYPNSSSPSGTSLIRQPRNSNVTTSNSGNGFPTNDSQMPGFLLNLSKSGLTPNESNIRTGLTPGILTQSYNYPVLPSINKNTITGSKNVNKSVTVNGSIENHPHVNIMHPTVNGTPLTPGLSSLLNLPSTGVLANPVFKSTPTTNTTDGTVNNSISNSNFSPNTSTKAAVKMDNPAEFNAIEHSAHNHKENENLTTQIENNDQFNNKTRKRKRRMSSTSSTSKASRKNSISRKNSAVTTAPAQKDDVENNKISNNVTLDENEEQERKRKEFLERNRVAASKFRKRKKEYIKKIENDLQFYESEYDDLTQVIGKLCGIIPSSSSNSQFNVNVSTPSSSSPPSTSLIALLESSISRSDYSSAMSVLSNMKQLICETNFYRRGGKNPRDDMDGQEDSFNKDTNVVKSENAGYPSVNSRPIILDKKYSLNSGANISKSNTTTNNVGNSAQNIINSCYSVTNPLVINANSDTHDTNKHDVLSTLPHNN
# Assay: PBM E-score (8-mer binding enrichment) (E-score (-0.5 to 0.5)); higher = stronger / more preferred TF binding; most listed sequences are background and not binding sites
# Conditions: protein concentration: 200 nM; construct: GST-full length
# Procedure, shortened: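 PURExpress in vitro transcription/translation supplied GST-tagged yeast transcription factors, either full-length or DNA-binding domain. Applied at about 100-200 nM to universal all-10-mer Agilent arrays double-stranded by primer extension, the bound protein was detected with fluorescent anti-GST. E-scores, modified Wilcoxon-Mann-Whitney statistics, were given by the Universal PBM Analysis Suite to ungapped eight-base words pooled with their reverse complements after masliner normalisation.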
row,Sequence,PBM E-score
1,TAACCTCA,0.157
2,GCGGTGAA,-0.0294
3,CATCGGAC,-0.104
4,AAATCTGA,0.157
5,AGCTATGA,0.209
6,CATACCTC,-0.00759
7,ACTCATCC,0.0876
8,AAACAGCC,-0.17
9,GCTACGAA,0.239
10,ATGATTGG,0.00474
11,ATCAGGCA,-0.158
12,ACCTCTCT,-0.189
13,AGCCTGAC,-0.093
14,GCATGTAA,0.168
15,CAATCTGG,-0.104
16,TAGATCAA,0.148
17,CACATTAA,0.0252
18,AAAGTGAT,0.171
19,GACCCACC,-0.191
20,AACGCTCC,-0.09
21,GATACCCA,0.143
22,ACTAAAGC,0.0851
23,AAAGCGTA,-0.0108
24,GCACGATA,0.11
25,AATTTCGT,0.329

row,Sequence,PBM E-score
1,AGATAAAA,0.18
2,GACACATA,0.19
3,AGGAACTC,-0.0596
4,AGTAACGA,-0.0118
5,AAGGTAGT,-0.172
6,AACGCAGC,0.0852
7,CGCTTGAG,-0.196
8,AAGCGACA,-0.083
9,AGGTCCAT,0.0213
10,CACTCACA,-0.0872
11,TCGCTAAA,0.0984
12,ACTGTTCA,-0.124
13,CGATATCA,0.107
14,AATCGCCG,-0.15
15,GCCGGTGA,-0.0673
16,CACCGTCC,-0.334
17,AGGCCGCA,-0.135
18,ATTATATA,0.234
19,CCGACACA,-0.193
20,ACCCCTCT,-0.252
21,AGCTAGAG,-0.0748
22,CGGCTTTC,-0.144
23,ACTCCTTC,-0.213
24,ACCGTGTG,-0.23
25,GAGGTCTA,-0.0941

row,Sequence,PBM E-score
1,CGCAATCC,0.188
2,AATTACTC,0.215
3,GTTAGGCA,-0.0724
4,ACTGTCAG,-0.0657
5,CGTTGGCA,-0.0554
6,AACATCGT,0.0175
7,CTAGAGAC,-0.207
8,GACCTCTC,-0.13
9,CTCGGAAG,-0.221
10,AACTACCG,0.0336
11,GATAAACC,0.0912
12,GGGGTTGA,-0.117
13,ACATGTGC,0.0169
14,CGGGTCGA,-0.254
15,AAAGGGTG,-0.0683
16,CCTACCGA,-0.168
17,ACGGATTG,-0.0304
18,GATGCTGC,-0.237
19,GCATTGCA,-0.0747
20,AAGGGCAC,-0.0629
21,CGCGGCTA,0.0344
22,CGGAGTCC,-0.128
23,ACGCAACC,0.379
24,ACTCATAA,0.132
25,CTCTAAAG,-0.206

row,Sequence,PBM E-score
1,AGCTCATG,0.0732
2,CTGACGCC,0.159
3,AAAGGTAG,-0.11
4,CTGCCCCC,-0.332
5,ACCACCTA,-0.114
6,ATCCCTAG,-0.156
7,CACTGAAC,0.00689
8,ACGCGGTC,0.0508
9,CGCCCCAC,-0.0143
10,AGGACTCC,-0.228
11,AGCTTGCC,0.141
12,AACGAGCC,-0.11
13,GCGATGGA,-0.185
14,AGTATATA,0.254
15,CCACTAGA,-0.174
16,ACGTGGAG,0.311
17,AGACTGTC,-0.165
18,CCGGCTAC,-0.0881
19,CCCACGAG,-0.254
20,CTTGCCTC,-0.154
21,ATGCCCTA,-0.375
22,CCTCTTCG,-0.147
23,CCAAATAG,-0.075
24,CTGAAAAC,0.0758
25,CATAAATA,0.112

row,Sequence,PBM E-score
1,CGGTGTAC,-0.0888
2,GAGGTATC,-0.238
3,ATACTGAC,0.181
4,TCGAACGA,0.0001
5,ACCCATCC,-0.0997
6,AGCACTTC,0.0331
7,GAGCAATA,0.0306
8,AAGTGGGG,-0.268
9,CATTAGTA,0.17
10,TCGATAGA,0.0307
11,TCATCAAA,0.0321
12,CACATCTC,-0.0743
13,TCGTTAAA,0.00692
14,ACTCATCA,0.0512
15,ACCGTTAT,0.00038
16,AGGCACCA,-0.112
17,AATCGATA,0.178
18,CCTCCAAG,-0.279
19,GAACACCA,-0.0562
20,ATTAACAA,0.276
21,AGAGCCCG,-0.0702
22,ACGCCTAC,0.0661
23,AATAGTTA,0.0933
24,GAATGACC,-0.0498
25,CCTTCCGC,-0.2

row,Sequence,PBM E-score
1,GTCTCGTA,0.0629
2,GAGGATCC,-0.167
3,ACACATGC,-0.0403
4,CTCAAGCA,-0.0662
5,AATCATGC,-0.0174
6,ATCACCTA,0.0925
7,TAAACAGA,0.104
8,CATTCTGC,-0.0569
9,AAGTGGAG,-0.0639
10,ATCCGTTC,-0.0953
11,AATACAAT,0.168
12,AACGGTGA,-0.158
13,CACGACGA,0.0235
14,ATGAGATC,0.103
15,CAAATTAA,0.143
16,CAAAACGA,0.101
17,AACCAATG,-0.00752
18,GCGTATGA,0.337
19,AATTATAG,0.0801
20,AAGCCAAC,-0.0157
21,ATCAACAT,0.285
22,AGGTAAGA,0.0248
23,CTAGCGAG,-0.204
24,CAGCGTGC,-0.0976
25,TGCCTCCA,-0.159

row,Sequence,PBM E-score
1,ATTTTCAC,0.0809
2,CCAGTCCC,-0.24
3,TTCGTCAA,0.297
4,CCCCATGC,-0.112
5,AAGAACGT,0.344
6,CTACTATC,-0.0548
7,ATCAGTAC,0.121
8,ACGGGCAA,-0.0707
9,CAGACCCG,-0.0876
10,CAATTCAG,-0.167
11,GTCTAAAC,0.0367
12,CGATCGAC,0.083
13,ATTCAATA,0.278
14,TAGCATGA,0.113
15,TTCATCAA,0.107
16,TATTCTAA,0.15
17,AGGATAAG,-0.114
18,CGAATATC,0.0899
19,CACCTGAG,-0.177
20,GCGGCTAA,-0.112
21,TGGGTGAA,0.0602
22,GACCAGGA,-0.197
23,ACAGGAAT,0.00126
24,CGCTCAAG,-0.192
25,TCCCAACA,-0.0541

row,Sequence,PBM E-score
1,CCTCAACA,0.121
2,ACCCAGTC,-0.183
3,CGAAGCAA,0.086
4,CAGTTCCA,-0.192
5,CACACTGC,-0.185
6,AGTCCTAT,-0.096
7,CGAACCAA,0.0938
8,AAAGTTCG,0.108
9,GGACTTAA,-0.119
10,CCCGCGAG,-0.232
11,AAAATCAC,0.124
12,AAGGTGAA,-0.0608
13,AGTCAAGA,-0.102
14,GTAGAAAC,0.231
15,ATTTGCTA,0.129
16,AAAATTTT,0.101
17,AACCGTAG,-0.229
18,CGAAAAAA,0.233
19,CTTACCTC,-0.167
20,ACGCTGCG,0.0452
21,ATCCCAGC,-0.172
22,CGCTGCAG,-0.14
23,TCAGAGGA,-0.106
24,AAGTAGTC,0.0187
25,CAAGGCCG,-0.188

row,Sequence,PBM E-score
1,GATGTTAC,0.282
2,AGCCACTC,-0.253
3,GGCATAGA,-0.0476
4,CGTCCCTC,-0.109
5,CCGTTTCC,-0.2
6,AAGTGGCT,-0.08
7,GCAGACTA,-0.155
8,GGGATGGA,-0.123
9,TAACGTGA,0.274
10,CCGAAAGC,-0.302
11,CATGTTCG,-0.0625
12,GCATATCA,0.104
13,GCCTTTCC,-0.208
14,GGAAACCC,-0.159
15,GCGTTAAA,0.00152
16,AAACCAAT,0.0284
17,CAGCTAAA,0.0861
18,CAACATGA,0.181
19,AGCAGTAT,-0.118
